To fix the notation:
B1: PhoQ; a variant is named by its letters at X, in order, P23837 (parent)
chain: MKKLLRLFFPLSLRVRFLLATAAVVLVLSLAYGMVALIGYSVSFDKTTFRLLRGESNLFYTLAKWENNKLHVELPENIDKQSPTMTLIYDENGQLLWAQRDVPWLMKMIQPDWLKSNGFHEIEADVNDTSLLLSGDHSIQQQLQEVREDDDDAEMTHSVAVNVYPATSRMPKLTIVVVDTIPVELKSSYMVWSWFIYVLSANLLLVIPLLWVAAWWSLRPIEALAKEVRELEEHNRELLNPATTRELTSLVRNLNRLLKSERERYDKYRTTLTDLTHSLKTPLXXLQXXLRSLRSEKMSVSDAEPVMLEQISRISQQIGYYLHRASMRGGTLLSRELHPVAPLLDNLTSALNKVYQRKGVNISLDISPEISFVGEQNDFVEVMGNVLDNACKYCLEFVEISARQTDEHLYIVVEDDGPGIPLSKREVIFDRGQRVDTLRPGQGVGLAVAREITEQYEGKIVAGESMLGGARMEVIFGRQHSAPKDE

Data on 153 variants can be found in a collection of fitness landscapes (doi:10.1126/science.1257360).

The list shows a part of the results.

In the experiment the parent is B1. Briefly: enrichment ratio after two sorts for PhoP signalling (ratio (wild type AVST 3.29)); higher = more functional. The settings on record: with PhoP (E. coli).
As to PQHG, the enrichment ratio was ≤ 0.25. On to MTWT, for which the enrichment ratio was ≤ 0.25. The value for EAFH was ≤ 0.25; that for SPWV was ≤ 0.25. For SGIG, the enrichment ratio amounted to 5.8. For HERA, the enrichment ratio is ≤ 0.25. DMED: the enrichment ratio was ≤ 0.25. Regarding SFAA, the enrichment ratio is ≤ 0.25. The value for FSVP was ≤ 0.25; that for FSRP was ≤ 0.25.

Regarding HTCK, the enrichment ratio is ≤ 0.25. The value for RYDY was ≤ 0.25; that for SCDC was ≤ 0.25; that for PPLR was ≤ 0.25. Consider QACW, for which the enrichment ratio is ≤ 0.25. In the case of KMVM, the enrichment ratio was ≤ 0.25. Consider QNNT, for which the enrichment ratio was ≤ 0.25. As to EMSV, the enrichment ratio was ≤ 0.25. For VRAK the value was ≤ 0.25; for HRAV, ≤ 0.25; for VTDT, ≤ 0.25. Consider NYGM, for which the enrichment ratio is ≤ 0.25.

TTCI: the enrichment ratio came out at 15.8.

Take FCNS: the enrichment ratio is ≤ 0.25. For FKKQ, the enrichment ratio is ≤ 0.25. The value for YNHW was ≤ 0.25. Consider SNWF, for which the enrichment ratio was ≤ 0.25. Turning to GSAM, the enrichment ratio came out at 6.82.

With YGIF, the enrichment ratio was 1.46. Take VEKT: the enrichment ratio was ≤ 0.25. For DMLY, the enrichment ratio was ≤ 0.25. Consider MGVE, for which the enrichment ratio was ≤ 0.25. The value for MYAF was ≤ 0.25; that for PVHT was ≤ 0.25; that for MEKY was ≤ 0.25.

Take WQCV: the enrichment ratio was ≤ 0.25.

Take IHYT: the enrichment ratio is ≤ 0.25. With PLHN, the enrichment ratio was ≤ 0.25. Consider NHAL, for which the enrichment ratio was ≤ 0.25.

For YGFK, the enrichment ratio is ≤ 0.25.

As for EKQY, the enrichment ratio was ≤ 0.25. Take ACSL: the enrichment ratio amounted to 16.6. As to PWIR, the enrichment ratio was ≤ 0.25. Turning to DCNH, the enrichment ratio is ≤ 0.25. Take IFLI: the enrichment ratio was ≤ 0.25. As for YWWC, the enrichment ratio was ≤ 0.25. TPWC: the enrichment ratio is ≤ 0.25. Take ASSV: the enrichment ratio was 11. In the case of ALES, the enrichment ratio was ≤ 0.25. For DEML, the enrichment ratio is ≤ 0.25. PYTL: the enrichment ratio was ≤ 0.25. The value for VRMM was ≤ 0.25; that for FISF was ≤ 0.25; that for GYPL was ≤ 0.25. As for QPLK, the enrichment ratio is ≤ 0.25. PPSE: the enrichment ratio was ≤ 0.25. The value for PVNT was ≤ 0.25; that for SGVE was ≤ 0.25; that for ETTR was ≤ 0.25. In the case of FEQY, the enrichment ratio is ≤ 0.25.

With IMKC, the enrichment ratio was ≤ 0.25. Consider QEMK, for which the enrichment ratio was ≤ 0.25. As to AQIW, the enrichment ratio was ≤ 0.25. For the variant DQKC, the enrichment ratio is ≤ 0.25. The value for KFCA was ≤ 0.25. LYDI: the enrichment ratio was ≤ 0.25. Consider GQNL, for which the enrichment ratio was ≤ 0.25. With PPAY, the enrichment ratio was ≤ 0.25. In the case of RSTI, the enrichment ratio was ≤ 0.25. For MSYA the value was 2.62; for TECY, 16.2.

Regarding LELW, the enrichment ratio is ≤ 0.25. For LLSI the value was ≤ 0.25.

For LYWR, the enrichment ratio is ≤ 0.25. Consider YPDH, for which the enrichment ratio was ≤ 0.25. For DLHD the value was ≤ 0.25; for FVSL, ≤ 0.25; for FCWL, ≤ 0.25.

Consider ESNY, for which the enrichment ratio was ≤ 0.25.

Regarding ICYW, the enrichment ratio was ≤ 0.25. As for NHGI, the enrichment ratio is ≤ 0.25. For CLFT the value was ≤ 0.25; for YFIR, ≤ 0.25; for PFEI, ≤ 0.25.

Consider LQEW, for which the enrichment ratio is ≤ 0.25. With GHKV, the enrichment ratio is ≤ 0.25.

Take INDS: the enrichment ratio was ≤ 0.25.

For GWFS, the enrichment ratio is ≤ 0.25. In the case of FHEC, the enrichment ratio is ≤ 0.25. Take EGCN: the enrichment ratio is ≤ 0.25.

Consider EVSR, for which the enrichment ratio was ≤ 0.25.

Regarding NSLQ, the enrichment ratio stood at 0.291.

As to DTNE, the enrichment ratio is ≤ 0.25.

On to KEMW, for which the enrichment ratio was ≤ 0.25.

Take IEKG: the enrichment ratio was ≤ 0.25. Consider PQDC, for which the enrichment ratio was ≤ 0.25. For LSSS, the enrichment ratio was ≤ 0.25. As to PVRR, the enrichment ratio is ≤ 0.25. In the case of GHNV, the enrichment ratio was ≤ 0.25. For PRHR the value was ≤ 0.25. On to ALRN, for which the enrichment ratio is ≤ 0.25.

For MCCH, the enrichment ratio was ≤ 0.25. Consider GHVV, for which the enrichment ratio is ≤ 0.25. The value for QQLY was ≤ 0.25. Take WQKC: the enrichment ratio is ≤ 0.25. In the case of LPFE, the enrichment ratio was ≤ 0.25.

For the variant TLSY, the enrichment ratio is 0.962. Take VYAW: the enrichment ratio was ≤ 0.25. For the variant VSYF, the enrichment ratio is ≤ 0.25. Regarding RTFS, the enrichment ratio is ≤ 0.25. For STSN the value was 11.3. As for FNQD, the enrichment ratio was ≤ 0.25. ERCA: the enrichment ratio was ≤ 0.25.

With KARY, the enrichment ratio was ≤ 0.25.

Regarding DIWM, the enrichment ratio was ≤ 0.25. Regarding QHST, the enrichment ratio was ≤ 0.25. Take WKTR: the enrichment ratio is ≤ 0.25.

For IILD, the enrichment ratio is ≤ 0.25. For NPMC the value was ≤ 0.25. Take HQCI: the enrichment ratio was ≤ 0.25. For the variant GCEW, the enrichment ratio is ≤ 0.25.

In the case of IQQE, the enrichment ratio is ≤ 0.25. For CVSY the value was ≤ 0.25; for MVLP, ≤ 0.25; for VTNC, ≤ 0.25. As for NDGV, the enrichment ratio is ≤ 0.25. For KRIQ the value was ≤ 0.25; for PCVC, ≤ 0.25; for EDCN, ≤ 0.25.

Regarding GSFA, the enrichment ratio was ≤ 0.25.

DNTM: the enrichment ratio is ≤ 0.25.

Consider HENQ, for which the enrichment ratio is ≤ 0.25. For the variant RQEL, the enrichment ratio was ≤ 0.25.

Take VNEI: the enrichment ratio was ≤ 0.25. For the variant YYYR, the enrichment ratio was ≤ 0.25. With SHCA, the enrichment ratio stood at 2.47. The value for FNLI was 3.91; that for NVSF was ≤ 0.25.

Turning to LKAE, the enrichment ratio is ≤ 0.25. Consider VSII, for which the enrichment ratio is ≤ 0.25. For FMWR the value was ≤ 0.25. Regarding HYFF, the enrichment ratio is ≤ 0.25.

As for SNYK, the enrichment ratio was ≤ 0.25. Take ALSA: the enrichment ratio was 1.32. For the variant IWKR, the enrichment ratio is ≤ 0.25.

Regarding VGQT, the enrichment ratio was ≤ 0.25. In the case of HSPS, the enrichment ratio is ≤ 0.25. The value for AGIG was 9.23; that for CCIR was ≤ 0.25; that for HGLP was ≤ 0.25.

Consider DWSY, for which the enrichment ratio was ≤ 0.25. With VSQR, the enrichment ratio is ≤ 0.25. For QICF, the enrichment ratio is ≤ 0.25.
